According to article PMC4336329 (PLoS ONE, 2015):
In all, about 310,000 compounds went through this assay and about 14,000 (4.5%) showed an effect of 50% or more. Effects have a minus sign here. This is one part of the list.

Each compound was assayed against human ether-à-go-go-related gene (hERG) potassium channel (human, UniProt Q12809) (assay: primary screen, population patch clamp on CHO cells stably expressing hERG).
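Further: peak tail current of the secondary pulse compared with the same well before compound.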

human ether-à-go-go-related gene (hERG) potassium channel, sequence (Q12809 whole entry, looked up): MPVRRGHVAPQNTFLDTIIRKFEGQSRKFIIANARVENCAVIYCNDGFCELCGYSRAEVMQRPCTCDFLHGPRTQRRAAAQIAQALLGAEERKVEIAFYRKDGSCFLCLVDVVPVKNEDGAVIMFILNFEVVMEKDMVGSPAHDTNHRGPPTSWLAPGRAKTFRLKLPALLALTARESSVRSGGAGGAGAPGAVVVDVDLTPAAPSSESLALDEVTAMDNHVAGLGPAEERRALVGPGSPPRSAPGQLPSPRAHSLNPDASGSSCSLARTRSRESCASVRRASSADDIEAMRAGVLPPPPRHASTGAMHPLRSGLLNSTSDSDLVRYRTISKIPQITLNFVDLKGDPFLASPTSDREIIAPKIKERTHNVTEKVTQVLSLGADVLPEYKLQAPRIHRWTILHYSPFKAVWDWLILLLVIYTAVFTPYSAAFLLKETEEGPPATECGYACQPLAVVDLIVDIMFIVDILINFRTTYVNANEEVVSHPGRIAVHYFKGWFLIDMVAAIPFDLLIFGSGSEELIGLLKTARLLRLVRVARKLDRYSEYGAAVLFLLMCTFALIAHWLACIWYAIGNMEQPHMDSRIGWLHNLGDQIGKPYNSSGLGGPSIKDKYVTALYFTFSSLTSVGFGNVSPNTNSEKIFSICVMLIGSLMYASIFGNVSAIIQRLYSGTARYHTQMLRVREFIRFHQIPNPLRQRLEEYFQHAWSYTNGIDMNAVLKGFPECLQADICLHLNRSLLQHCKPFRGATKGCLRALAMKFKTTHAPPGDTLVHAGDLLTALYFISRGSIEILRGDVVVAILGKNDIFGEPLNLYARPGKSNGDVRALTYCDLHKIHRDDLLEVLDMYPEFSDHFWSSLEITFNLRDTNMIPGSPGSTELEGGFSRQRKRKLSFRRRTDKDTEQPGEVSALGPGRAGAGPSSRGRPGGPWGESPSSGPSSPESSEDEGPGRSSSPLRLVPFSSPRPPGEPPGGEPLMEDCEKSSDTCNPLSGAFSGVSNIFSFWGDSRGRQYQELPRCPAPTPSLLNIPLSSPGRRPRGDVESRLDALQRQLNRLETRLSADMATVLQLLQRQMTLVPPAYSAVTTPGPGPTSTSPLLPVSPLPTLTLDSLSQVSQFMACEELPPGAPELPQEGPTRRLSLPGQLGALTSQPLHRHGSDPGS

How did the “hERG current change (%, negative = inhibition) at 10uM” value turn out when CCOC(=O)N1N=C(c2ccccc2)CC1(O)C(C)(F)F (stereo not drawn) was run?
The value was 12.1%.

O=C(CNC(=O)c1ccc(OC(F)F)cc1)NCC1CCCO1 (stereo not drawn) was tested. Which “hERG current change (%, negative = inhibition) at 10uM” value did it give?
Its value is 2.87%.

With CCCOC(=O)CC1C(=O)NCCN1C(=O)OC(C)(C)C (stereo not drawn) as the compound, how does the “hERG current change (%, negative = inhibition) at 10uM” value read?
The value was 19.3%.

For C=CCn1c(CSc2ccc(C)cc2)n[nH]c1=S, which “hERG current change (%, negative = inhibition) at 10uM” value is on record?
The value was 10.8%.

How did the “hERG current change (%, negative = inhibition) at 10uM” value turn out when CCOC(=O)C1CCCN(C(=O)c2ccc3c(=O)n(CCOC)c(=S)[nH]c3c2)C1 (stereo not drawn) was run?
The value was -10.7%.

For O=C(O)CC(CC(=O)Nc1ccc(F)c(Cl)c1)c1ccc(Cl)cc1Cl (stereo not drawn), which “hERG current change (%, negative = inhibition) at 10uM” value is on record?
Its value is 15%.

Which “hERG current change (%, negative = inhibition) at 10uM” value does the source give for CCOC(=O)c1cc(-c2ccccc2)nn1Cc1cc(CC)no1 here?
Its value is -20%.

CC(Oc1ccccc1F)C(=O)NNC(=O)CC(C)c1ccccc1 (stereo not drawn) was tested. Which “hERG current change (%, negative = inhibition) at 10uM” value did it give?
The value was 14.8%.

How did the “hERG current change (%, negative = inhibition) at 10uM” value turn out when COc1ccc(OC)c(C(O)c2nc3ccccc3n2C(C)C)c1 (stereo not drawn) was run?
The value was 9.26%.

For Cc1cc(C(=O)NCc2ccc(Cl)cc2)n(-c2ccccc2)n1, which “hERG current change (%, negative = inhibition) at 10uM” value is on record?
Its value is -37.9%.

COc1c2ccoc2nc2c(OC)c(O)ccc12 was tested. Which “hERG current change (%, negative = inhibition) at 10uM” value did it give?
Its value is 14.4%.

For Cc1cccc(NS(=O)(=O)c2cc(C(=O)OCC(=O)Nc3cc(C)on3)ccc2C)c1, which “hERG current change (%, negative = inhibition) at 10uM” value is on record?
Its value is 0.401%.

With CCOc1cc(C2C3=C(CCCC3=O)N(CC(=O)O)C3=C2C(=O)CCC3)ccc1OC as the compound, how does the “hERG current change (%, negative = inhibition) at 10uM” value read?
The value was 19.2%.

CCOc1ccc(C(=O)Nc2cccc(-c3ccc4nncn4n3)c2)cc1 was tested. Which “hERG current change (%, negative = inhibition) at 10uM” value did it give?
Its value is 12.5%.

How did the “hERG current change (%, negative = inhibition) at 10uM” value turn out when COc1cc(-c2cc(C(=O)Nc3cccc(S(=O)(=O)N(C)C)c3)c3ccccc3n2)cc(OC)c1OC was run?
Its value is 4.81%.

Which “hERG current change (%, negative = inhibition) at 10uM” value does the source give for Cc1ccc(NC(=O)CCc2nc3ccccc3[nH]2)cc1C here?
The value was 1.04%.

Which “hERG current change (%, negative = inhibition) at 10uM” value does the source give for O=C(Nc1nnc(-c2ccco2)s1)C1CCN(S(=O)(=O)c2ccc(Cl)cc2)CC1 here?
Its value is 3.2%.

CCn1c(NC(=O)C(C)C)c2ccccc2nc1=O was tested. Which “hERG current change (%, negative = inhibition) at 10uM” value did it give?
Its value is 24.1%.

O=C1CCCN1c1ccc(S(=O)(=O)NCc2ccco2)cc1 was tested. Which “hERG current change (%, negative = inhibition) at 10uM” value did it give?
Its value is 3.58%.

Cc1ccc(C)c(NC(=S)Nc2ccc(S(=O)(=O)Nc3ncccn3)cc2)c1 was tested. Which “hERG current change (%, negative = inhibition) at 10uM” value did it give?
The value was 16.2%.

How did the “hERG current change (%, negative = inhibition) at 10uM” value turn out when Cc1ccc(CSc2nc3c(c(=O)[nH]2)CCC3)cc1 was run?
The value was 5.97%.

How did the “hERG current change (%, negative = inhibition) at 10uM” value turn out when Cc1ccc(NNC(N)=S)cc1Cl was run?
Its value is 9.1%.

With COc1ccc(NC(=O)Nc2c(C)n(C)n(-c3ccccc3)c2=O)cc1OC as the compound, how does the “hERG current change (%, negative = inhibition) at 10uM” value read?
The value was 4.25%.

For Cc1ccnc(NCc2ccc(Cl)cc2)c1, which “hERG current change (%, negative = inhibition) at 10uM” value is on record?
Its value is 0.582%.

With O=Nc1c(O)n(Cc2c(Cl)cccc2Cl)c2ccccc12 as the compound, how does the “hERG current change (%, negative = inhibition) at 10uM” value read?
The value was 21.2%.

With Cc1ccc(-c2nc(C(=O)NCCCN3CCOCC3)cc3c2[nH]c2ccccc23)cc1 as the compound, how does the “hERG current change (%, negative = inhibition) at 10uM” value read?
The value was -15%.

How did the “hERG current change (%, negative = inhibition) at 10uM” value turn out when COc1cccc(/C=N/n2c(C3CCCCC3)n[nH]c2=S)c1OC was run?
The value was 18%.

How did the “hERG current change (%, negative = inhibition) at 10uM” value turn out when COc1ccccc1C(CNC(=O)c1cccc(NS(=O)(=O)c2ccc(C)c(F)c2)c1)N1CCCC1 (stereo not drawn) was run?
The value was -40.9%.

How did the “hERG current change (%, negative = inhibition) at 10uM” value turn out when Cc1ccc(C23CC4CC(CC(C(=O)N(C)C)(C4)C2)C3)cc1 was run?
Its value is -4.55%.

With COc1ccccc1CNC(=O)C1CCC(=O)N1C(C)C (stereo not drawn) as the compound, how does the “hERG current change (%, negative = inhibition) at 10uM” value read?
The value was 21.1%.

Which “hERG current change (%, negative = inhibition) at 10uM” value does the source give for N#Cc1ccc(OCC(=O)N/N=C2/CC(c3ccccc3)Oc3ccccc32)cc1 (stereo not drawn) here?
The value was 7.83%.

With O=C1CCCN1c1ccc(S(=O)(=O)N2CCC(c3ccccc3)CC2)cc1 as the compound, how does the “hERG current change (%, negative = inhibition) at 10uM” value read?
Its value is -2.28%.

Which “hERG current change (%, negative = inhibition) at 10uM” value does the source give for Cc1cc(NC(=O)c2ccccc2)nc(C)n1 here?
The value was 4.11%.

With Cc1ccccc1C(C(=O)NC1CCCCC1)N(C(=O)CNC(=O)c1ccco1)c1cccnc1 (stereo not drawn) as the compound, how does the “hERG current change (%, negative = inhibition) at 10uM” value read?
Its value is 6.3%.

CN(C)C1(CNC(=O)c2cccc(S(=O)(=O)Nc3ccc(Br)cc3)c2)CCCCC1 was tested. Which “hERG current change (%, negative = inhibition) at 10uM” value did it give?
Its value is -66.7%.

With CCN1CCCC1CNC(=O)Cn1cccc1C(=O)c1ccccc1C (stereo not drawn) as the compound, how does the “hERG current change (%, negative = inhibition) at 10uM” value read?
The value was -48.9%.

Which “hERG current change (%, negative = inhibition) at 10uM” value does the source give for CC(=O)c1cccc(N(CC(=O)NC2CCCC2)C(=O)c2ccc(C)s2)c1 here?
The value was 12.7%.

How did the “hERG current change (%, negative = inhibition) at 10uM” value turn out when Cc1cccc(CN2CCN(c3nc4nonc4nc3NC3CC3)CC2)c1 was run?
Its value is -4.44%.

O=C(CNC(=O)c1ccncc1)N/N=C/c1cc(Br)ccc1O was tested. Which “hERG current change (%, negative = inhibition) at 10uM” value did it give?
Its value is -18.2%.

O=C(c1cccc(C(F)(F)F)c1)N1CCC(O)(CS(=O)(=O)Cc2ccccc2)CC1 was tested. Which “hERG current change (%, negative = inhibition) at 10uM” value did it give?
Its value is -0.547%.

For CC(C)COc1ccc(C(=O)NC(=S)Nc2ccc(CN3CCOCC3)cc2)cc1, which “hERG current change (%, negative = inhibition) at 10uM” value is on record?
The value was 12.1%.

How did the “hERG current change (%, negative = inhibition) at 10uM” value turn out when CCc1ccc(NC(=O)c2c(Cl)nc(C)c(Cl)c2C)cc1 was run?
Its value is -3.57%.

CN(CCC#N)C(=O)COC(=O)c1ccc(CNS(=O)(=O)c2ccc(F)c(Cl)c2)cc1 was tested. Which “hERG current change (%, negative = inhibition) at 10uM” value did it give?
The value was -22.4%.

With Cn1ccnc1P(=S)(c1nccn1C)c1nccn1C as the compound, how does the “hERG current change (%, negative = inhibition) at 10uM” value read?
Its value is -0.952%.

With S=C(NCCc1ccc(Cl)cc1)NCc1ccccc1 as the compound, how does the “hERG current change (%, negative = inhibition) at 10uM” value read?
Its value is -18.5%.

CC(C)c1ccc(C2/C(=C(/O)c3ccccc3)C(=O)C(=O)N2CCCN2CCOCC2)cc1 (stereo not drawn) was tested. Which “hERG current change (%, negative = inhibition) at 10uM” value did it give?
Its value is 25.6%.

How did the “hERG current change (%, negative = inhibition) at 10uM” value turn out when Cc1[nH]nc2oc(=O)c(CCO)c(C)c12 was run?
Its value is -8.97%.

How did the “hERG current change (%, negative = inhibition) at 10uM” value turn out when O=C(Cn1cnc2ccccc21)Nc1ccc2c(c1)OCCCO2 was run?
Its value is -3.29%.

Cc1cc(C)cc(NC(=O)COC(=O)CCC2CCCC2)c1 was tested. Which “hERG current change (%, negative = inhibition) at 10uM” value did it give?
Its value is 10.7%.

Cc1ccc(NC(=O)C2CC(O)CN2C(=O)OCc2ccccc2)c(C)c1 (stereo not drawn) was tested. Which “hERG current change (%, negative = inhibition) at 10uM” value did it give?
The value was 13.7%.

For CC(C)NS(=O)(=O)c1ccc(CCC(=O)NCc2ccco2)cc1, which “hERG current change (%, negative = inhibition) at 10uM” value is on record?
Its value is -0.0648%.

How did the “hERG current change (%, negative = inhibition) at 10uM” value turn out when CCCCOC(=O)Nc1ccc(C(N)=O)cc1 was run?
The value was -6.35%.

Cc1ccc(S(=O)(=O)N2CCN(C(=O)COC(=O)c3cccnc3Cl)CC2)c(C)c1 was tested. Which “hERG current change (%, negative = inhibition) at 10uM” value did it give?
The value was -7.65%.

For CCC(=O)N1CCCc2cc(S(=O)(=O)CCC(=O)Nc3ccccc3C)ccc21, which “hERG current change (%, negative = inhibition) at 10uM” value is on record?
Its value is 1.55%.

CC(C)(C)OC(=O)N[C@H](C(=O)OC(C)(C)C)c1ccc2ccccc2c1 was tested. Which “hERG current change (%, negative = inhibition) at 10uM” value did it give?
Its value is 3.18%.

COC(=O)c1ccc(NS(=O)(=O)c2cccc3cccnc23)cc1 was tested. Which “hERG current change (%, negative = inhibition) at 10uM” value did it give?
Its value is 33.3%.

For C=CCN1C(=O)C(Cc2ccc(OCC)cc2)S/C1=N\N=C\c1cccs1 (stereo not drawn), which “hERG current change (%, negative = inhibition) at 10uM” value is on record?
The value was 2.79%.
